Measured values: US20250223331A1, “GLP-1/GIP DUAL-TARGETED POLYPEPTIDE AND FUSION PROTEIN AND APPLICATIONS THEREOF” (SUNSHINE LAKE PHARMA CO., LTD., priority 2021, published 2025)
Numbering of substitutions follows the chain as printed.

B1: HEC-G123: fusion protein of SEQ ID NO: 103 polypeptide, linker peptide and Fc fragment (protein)
chain: YSEGTFTSDYSILLDKIAQREFVQWLLAGGPSSGAPPPSGGGGSGGGGSGGGGSA[here human IgG4 Fc with S228P F234A L235A (EU numbers) without letters]
B2: HEC-G128: fusion protein of SEQ ID NO: 108 polypeptide, linker peptide and Fc fragment (protein)
chain: B1 chain with S2G, I17K, E21D, V23I, Q24E
B3: HEC-G131: fusion protein of SEQ ID NO: 111 polypeptide, linker peptide and Fc fragment (protein)
chain: B1 chain with E21D, Q24E, L27I
B4: HEC-G132: fusion protein of SEQ ID NO: 112 polypeptide, linker peptide and Fc fragment (protein)
chain: B1 chain with S2G, E21D, Q24E, L27I

How the values were obtained:
[1] = test system: normal C57BL/6 mice; assay: glucose tolerance in normal C57BL/6 mice (Example 7); assay type: in vivo; settings: 3 nmol/kg s.c. single dose, 72 h after dose, 2 g/kg glucose i.p.
[2] = test system: normal C57BL/6 mice; assay: as above; assay type: in vivo; settings: for Blood glucose value 0 min / Blood glucose value 15 min / Blood glucose value 30 min / Blood glucose value 60 min: 3 nmol/kg s.c. single dose, 72 h after dose, 2 g/kg glucose i.p.; for improving glucose tolerance compared with positive control Dulaglutide: 3 nmol/kg s.c., 72 h; for effect on blood glucose level: normal C57 mice after a single dose for 72 h
Method: Experimental methods: Normal C57BL/6 mice were randomly divided into 6 groups (Vehicle group, Dulaglutide group, HEC-G123 group, HEC-G128 group, HEC-G131 group, HEC-G132 group) according to blood glucose and body weight, with 8 mice in each group. For the groups of Dulaglutide, HEC-G123, HEC-G128, HEC-G131 and HEC-G132, the corresponding drug was injected subcutaneously into the mice at a dose of 3 nmol/kg, and for the control group, the corresponding vehicle was injected subcutaneously.
After 60 h of single administration, the mice were fasted for 12 h and drank water freely. Blood was collected from the tail vein to measure the basal blood glucose value of each group, then 2 g/kg of glucose solution was injected intraperitoneally, and blood glucose was measured at 15, 30, 60, and 0 min after glucose administration. According to the blood glucose values measured at different time points, the blood glucose concentration-time curve was plotted, and the AUC0˜90min of each dose group was calculated, and the experimental results are shown in Table 6 and FIGS. 1-2.

Molecule	Blood glucose value 90 min [1] [mM]	Blood glucose value 0 min [2] [mM]	Blood glucose value 15 min [2] [mM]	Blood glucose value 30 min [2] [mM]	Blood glucose value 60 min [2] [mM]	improving glucose tolerance compared with positive control Dulaglutide [2]	effect on blood glucose level [2]
B1	5.5 ± 0.4	4.6 ± 0.7	13.3 ± 1.9	8.1 ± 1.1	6.6 ± 0.6	more significant effect on improving glucose tolerance	significantly reduced the blood glucose level
B2	5.6 ± 0.6	4.2 ± 1.1	11.9 ± 2.0	9.1 ± 1.7	6.2 ± 0.9	more significant effect on improving glucose tolerance	significantly reduced the blood glucose level
B3	7.6 ± 1.4	4.0 ± 0.8	15.6 ± 1.9	13.2 ± 2.8	9.2 ± 2.0	no significant difference in improving glucose tolerance	significantly reduced the blood glucose level
B4	7.6 ± 0.7	4.3 ± 0.9	15.7 ± 2.2	12.3 ± 4.1	8.4 ± 1.2	no significant difference in improving glucose tolerance	significantly reduced the blood glucose level
